Reference: PubChem BioAssay AID1030 (National Center for Advancing Translational Sciences (NCATS), 2008)
Among all 220,000 compounds or so, about 16,000 (7.3%) were called active. The shares of active, inactive and inconclusive entries below differ from those in the screen. Calls come from the whole dose curve; as a rule, active = well fitted inhibition curve with a large enough effect (not every such curve was filed as active); inconclusive = small, poorly fitted or top-dose-only effect, or another doubt; inactive = no such curve, though single readings can be large or run the other way. Potencies of inconclusive entries are left out as doubtful fits.

Target: Aldehyde dehydrogenase 1A1 (Homo sapiens) (UniProt P00352)
Sequence of UniProt P00352 (P00352 whole entry, looked up): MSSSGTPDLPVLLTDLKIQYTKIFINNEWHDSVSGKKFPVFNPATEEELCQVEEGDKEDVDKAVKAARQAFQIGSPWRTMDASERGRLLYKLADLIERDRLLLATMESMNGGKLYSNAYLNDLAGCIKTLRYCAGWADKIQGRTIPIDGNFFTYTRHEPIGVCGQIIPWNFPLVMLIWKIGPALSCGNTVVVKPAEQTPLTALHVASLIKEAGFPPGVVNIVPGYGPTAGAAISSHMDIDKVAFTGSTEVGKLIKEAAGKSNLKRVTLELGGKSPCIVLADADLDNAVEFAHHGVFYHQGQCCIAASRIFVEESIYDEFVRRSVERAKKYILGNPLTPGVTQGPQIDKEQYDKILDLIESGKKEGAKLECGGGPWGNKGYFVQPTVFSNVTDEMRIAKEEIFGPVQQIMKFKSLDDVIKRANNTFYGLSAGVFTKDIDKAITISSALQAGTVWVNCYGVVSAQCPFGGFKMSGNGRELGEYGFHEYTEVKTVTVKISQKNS
Test: qHTS Assay for Inhibitors of Aldehyde Dehydrogenase 1 (ALDH1A1);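 for activity, negative = inhibition: plate controls were no enzyme wells and a reference inhibitor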
Settings: Purified ALDH1A1, NADH fluorescence, propionaldehyde substrate; series mostly up to 75.3 µM; activity, negative = inhibition: at the top concentration
Potency is the fitted concentration of half-maximal effect; tags give direction and shape of the fitted curve.

Structure (SMILES) | Potency | activity, negative = inhibition
COC(=O)C1=C(NC(=O)c2ccccc2C)CCS1 | inconclusive [inhibitor, single point] | 
Cc1ccc(NC(=S)NC(NC(=O)Cc2cccc3ccccc23)C(Cl)(Cl)Cl)cc1 (stereo not given) | inconclusive [inhibitor, single point] | 
CCCCN(CCCC)C(=O)CN(C)S(=O)(=O)c1ccc2c(c1)n(C)c(=O)c(=O)n2C | inconclusive [inhibitor, partial curve] | 
CC(c1cccs1)N(Cc1ccco1)C(=O)Nc1ccc(Cl)c(Cl)c1 (stereo not given) | inconclusive [inhibitor, full curve] | 
O=c1cnc(-c2ccc(Cl)cc2)cn1O | inconclusive [inhibitor, single point] | 
O=C(CSc1cn(Cc2ccccc2)c2ccccc12)NCc1ccc(F)cc1 | active: 7.94 µM | 
Cc1onc(-c2c(Cl)cccc2Cl)c1C(=O)c1c[nH]c(C(=O)NCC2CCCO2)c1 (stereo not given) | inconclusive [inhibitor, single point] | 
Cc1cc(NC(=O)CSc2nnc(Cc3cccn3C)n2CCc2ccccc2)no1 | inconclusive [inhibitor, partial curve] | 
COc1ccc(-c2cc(C(F)(F)F)nc(SCC(=O)NCc3cnn(C)c3C)n2)cc1OC | inconclusive [inhibitor, single point] | 
O=C(CN1CCN(Cc2ccccc2)CC1)N/N=C/c1c[nH]c2ccccc12 |  | inactive: 5.61%
CCOC(=O)C(C)S(=O)(=O)c1ccc(C(F)(F)F)cn1 (stereo not given) |  | inactive: -12%
Cc1nn(-c2ccccc2)c2[nH]c(=O)c(CNCc3ccc4c(c3)OCO4)cc12 | inconclusive [inhibitor, single point] | 
COc1ccc(OC)c(NC(=O)c2ccc(OC3CSC3)cc2)c1 |  | inactive: 7.48%
Nc1ncnc2c1ncn2[C@H]1O[C@@H](C(=O)O)[C@@H](O)[C@H]1O |  | inactive: 7.22% [at 13.5 µM]
N#Cc1c(F)cccc1N1CCOCC1 | inconclusive [inhibitor, single point] | 
CCOC(=O)Nc1ccc2c(COC(=O)CNS(=O)(=O)c3cccc(Br)c3)cc(=O)oc2c1 | inconclusive [inhibitor, partial curve] | 
O=c1[nH][nH]cc1C=Nc1ccccc1O | inconclusive [inhibitor, single point] | 
CCCc1cn(S(=O)(=O)c2ccc(OC)cc2OC)nc1N |  | inactive: 3.99%
N#CCCN(CCC#N)c1nnc(-c2ccccc2)s1 | inconclusive [inhibitor, single point] | 
CCOC(=O)c1c(-c2ccc(F)cc2)csc1NC(=O)C1CCCO1 (stereo not given) | active: 11.2 µM | 
Cc1ccc2[nH]c(=O)c(CNC(C)(C)C)cc2c1 | inconclusive [inhibitor, partial curve] | 
Cc1ccc2[nH]c(=O)c(C(c3nnnn3CC3CCCO3)N3CCc4ccccc4C3)cc2c1 (stereo not given) | inconclusive [inhibitor, partial curve] | 
Cn1c(=O)n(C/C=C/c2ccccc2)c(=O)c2c1nc1n2CCCN1c1ccc(F)cc1 |  | inactive: -5.38%
C=CCNC(=O)COC(=O)c1ccccc1C(=O)N(C)C1CCCCC1 | inconclusive [inhibitor, single point] | 

Structure (SMILES) | Potency | activity, negative = inhibition
Cc1ccc(S(=O)(=O)Nc2ccc(-c3nnc(SCc4ccccc4Cl)o3)cc2)cc1 | inconclusive [inhibitor, single point] | 
O=C(CCn1nc(-c2ccc(Cl)cc2)c2ccccc2c1=O)NCC1CCCO1 (stereo not given) | inconclusive [inhibitor, single point] | 
Nc1cccnc1Sc1cc(Cl)c(Cl)cc1Cl | inconclusive [inhibitor, single point] | 
O=C(NCc1cccnc1)c1ccc(-c2cc(Cl)ccc2Cl)o1 | active: 7.08 µM | 
Cc1ccnc(NC(=O)c2cccc(NC(=O)Cc3ccccc3)c2)c1 | inconclusive [inhibitor, partial curve] | 
CCN(CC)S(=O)(=O)c1cccc(C(=O)N/N=C/c2ccc(O)c(O)c2O)c1 | active: 8.91 µM | 
Cc1ccccc1C(=O)Nc1ccc2c(c1)OCO2 |  | inactive: -5.47%
Cn1c(-c2ccccc2)c(/C=N/NC(=O)c2ccc(O)cc2)c2ccccc21 |  | inactive: -15.1%
CCN(c1cccc(C)c1)S(=O)(=O)c1ccc(O)c(C(=O)O)c1 | inconclusive [inhibitor, single point] | 
CCOC(=O)C1CCN(C/C=C/c2ccccc2OC)CC1 | inconclusive [inhibitor, single point] | 
COc1cccc(C2C(C(=O)c3cccs3)=C(O)C(=O)N2CCCn2ccnc2)c1OC (stereo not given) | inconclusive [inhibitor, single point] | 
CCOc1ccc(CC(=O)NNC(=S)Nc2ccccc2)cc1Br | active: 31.6 µM | 
Cc1nnc(SCC(=O)OC2CC(C)CCC2C(C)C)[nH]c1=O (stereo not given) | inconclusive [inhibitor, single point] | 
CSC1=C(C#N)C(c2ccc(Cl)cc2)C2=C(CC(C)(C)CC2=O)N1 (stereo not given) | inconclusive [inhibitor, single point] | 
COc1ccc(C(=O)NNC(=S)NC(=O)C(C)(C)C)cc1 |  | inactive: 4.46%
Cc1c(C(=O)O)[nH]c2ccc([N+](=O)[O-])cc12 | inconclusive [inhibitor, partial curve] | 
Cc1oc(-c2cc(F)ccc2F)nc1CN1CCN(c2ncnc3ccccc23)CC1 | active: 7.94 µM | 
CCN1C(=O)[C@H]2[C@H]3[C@H](O)[C@H](O)C/C(=N/OC/C=C(\C)CCC=C(C)C)[C@@H]3CC[C@@H]2C1=O |  | inactive: 6.52% [at 13.5 µM]
CCOc1ccc(NC(=O)c2nnn(CC(=O)Nc3ccccc3OC)c2N)cc1 | inconclusive [inhibitor, single point] | 
COc1ccc(Br)c2oc(S)cc(=O)c12 | inconclusive [inhibitor, single point] | 
COC(=O)c1ccc(N2C(=O)CC(N3CCN(C(=O)c4ccco4)CC3)C2=O)cc1 (stereo not given) | active: 12.6 µM | 
COc1ccc(CNC(=O)/C(C)=C\C(=O)O)cc1 |  | inactive: -13.2%
N#C/C(=C(/O)c1cc2ccccc2o1)c1nc2ccccc2s1 |  | inactive: -9.19%
Cc1c(CCC(C)C)c(-n2ccnc2C)n2c(nc3ccccc32)c1C#N | inconclusive [inhibitor, partial curve] | 

Structure (SMILES) | Potency | activity, negative = inhibition
O=C(NCc1nc2ccccc2[nH]1)C1=C[C@H](c2ccc3c(c2)OCO3)C[C@H](OCc2ccc(CO)cc2)O1 | inconclusive [inhibitor, single point] | 
Cc1cc(C)c(C#N)c(SCc2[nH]nc3c2C(c2ccc(F)cc2)C(C#N)=C(N)O3)n1 (stereo not given) | inconclusive [inhibitor, single point] | 
C=CCN(CC=C)CCOc1ccc2ccccc2c1 |  | inactive: -4.84%
COc1cccc(Cn2cccc(NC(=O)Nc3ccc(C#N)cc3)c2=O)c1 | inconclusive [inhibitor, partial curve] | 
COC(=O)c1c(NS(C)(=O)=O)sc2c1CCCC2 | inconclusive [inhibitor, single point] | 
O=C(C1=C[C@H](c2ccc3c(c2)OCO3)C[C@H](OCCCCO)O1)N1CCN(Cc2ccccc2)CC1 | inconclusive [inhibitor, full curve] | 
CCOc1ccc(CCNC(=O)C2CCN(S(=O)(=O)N3CCCCC3)CC2)cc1OCC | inconclusive [inhibitor, single point] | 
O=C(Cn1cc([N+](=O)[O-])cn1)N1CCc2ccccc2C1 |  | inactive: -3.09%
CCOC(=O)CNC(=O)c1cn(CC)c(=O)c2cc(OC)c(OC)cc12 |  | inactive: -15.1%
COc1ccc([C@H]2[C@H](C(=O)C(C)(C)C)N3N=Cc4ccccc4C3[C@]23N=C(c2ccccc2)OC3=O)cc1 (stereo not given in full) | inconclusive [inhibitor, partial curve, poor fit] | 
C(=N\N1CCN(c2ccccn2)CC1)/c1ccco1 | active: 17.8 µM | 
COc1ccccc1/C=N/N1C(=O)c2cccc3cccc(c23)C1=O | inconclusive [inhibitor, single point] | 
O=C(COC(=O)/C=C/c1nc2ccccc2s1)Nc1cccc(Cl)c1Cl | inconclusive [inhibitor, single point] | 
CCOC(=O)N1CCN(C(=O)CN(C2CCCCC2)S(=O)(=O)c2ccc(C)cc2)CC1 | active: 7.08 µM | 
Cc1cc(C)n2c(-c3ccccc3Cl)nnc2n1 | inconclusive [inhibitor, single point] | 
CCC(=O)OCn1nnc2ccccc2c1=O |  | inactive: -2.47%
COCCNC(=O)C(=O)NCC1OCCCN1S(=O)(=O)c1cccs1 (stereo not given) | active: 17.8 µM | 
CC(C)(C)[Si](C)(C)c1c2c(nc3ccc(OCc4ccccc4)cc13)-c1cccc(=O)n1C2 | inconclusive [inhibitor, partial curve] | 
COC(=O)CSc1nnc(-c2cccnc2)o1 | inconclusive [inhibitor, full curve] | 
CCOc1ccccc1N1CC(C(=O)Nc2cccc(S(=O)(=O)N3CCCCC3)c2)CC1=O (stereo not given) | inconclusive [inhibitor, partial curve, poor fit] | 
COc1ccc2c(c1)c(C(=O)N1CCN(C)CC1)c(C)n2-c1ccccc1 | active: 14.1 µM | 
COc1cc(OC)c(NC(=O)c2ccccc2F)cc1Cl | inconclusive [inhibitor, single point] | 
